Results from PubChem BioAssay (NCI).
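Protocol summary: plate cells (96-well), add compound at 5 concentrations, incubate 48 h, interpolate endpoints linearly. The concentration for 50% growth inhibition is given as GI50. TGI is the concentration that stops growth completely.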

test system: NCI-H322M lung; assay: growth of human tumour cells (NCI), 48 h

Row | SMILES | GI50 [µM] | TGI [µM]
1 | Cc1ccc(C2CC(c3ccc(Nc4nc(NCCO)nc(Nc5ccc(Cl)cc5)n4)cc3)=Nc3c(N)nc(N)nc3N2)cc1 (stereo not drawn) | 1.59 | 2.94
2 | CN(C)CCCOc1c2ccccc2nc2c1oc1ccc(Cl)cc12 | 2.89 | 12
3 | CCO/C=N/C1=C(C#N)C(c2ccc(F)cc2)c2sc3c(C)cccc3c2O1 (stereo not drawn) | 0.904 | 21.3
4 | Cc1cc2c(-c3ccc(NC(=O)[C@H](N)CC(C)(C)C)cc3C)ccnc2[nH]1 | 14.3 | 27.6
